We go through 1 substance from publication PMC3326058.

Amino acid sequences for entries named in this document (tags omitted).
UniProt P41229: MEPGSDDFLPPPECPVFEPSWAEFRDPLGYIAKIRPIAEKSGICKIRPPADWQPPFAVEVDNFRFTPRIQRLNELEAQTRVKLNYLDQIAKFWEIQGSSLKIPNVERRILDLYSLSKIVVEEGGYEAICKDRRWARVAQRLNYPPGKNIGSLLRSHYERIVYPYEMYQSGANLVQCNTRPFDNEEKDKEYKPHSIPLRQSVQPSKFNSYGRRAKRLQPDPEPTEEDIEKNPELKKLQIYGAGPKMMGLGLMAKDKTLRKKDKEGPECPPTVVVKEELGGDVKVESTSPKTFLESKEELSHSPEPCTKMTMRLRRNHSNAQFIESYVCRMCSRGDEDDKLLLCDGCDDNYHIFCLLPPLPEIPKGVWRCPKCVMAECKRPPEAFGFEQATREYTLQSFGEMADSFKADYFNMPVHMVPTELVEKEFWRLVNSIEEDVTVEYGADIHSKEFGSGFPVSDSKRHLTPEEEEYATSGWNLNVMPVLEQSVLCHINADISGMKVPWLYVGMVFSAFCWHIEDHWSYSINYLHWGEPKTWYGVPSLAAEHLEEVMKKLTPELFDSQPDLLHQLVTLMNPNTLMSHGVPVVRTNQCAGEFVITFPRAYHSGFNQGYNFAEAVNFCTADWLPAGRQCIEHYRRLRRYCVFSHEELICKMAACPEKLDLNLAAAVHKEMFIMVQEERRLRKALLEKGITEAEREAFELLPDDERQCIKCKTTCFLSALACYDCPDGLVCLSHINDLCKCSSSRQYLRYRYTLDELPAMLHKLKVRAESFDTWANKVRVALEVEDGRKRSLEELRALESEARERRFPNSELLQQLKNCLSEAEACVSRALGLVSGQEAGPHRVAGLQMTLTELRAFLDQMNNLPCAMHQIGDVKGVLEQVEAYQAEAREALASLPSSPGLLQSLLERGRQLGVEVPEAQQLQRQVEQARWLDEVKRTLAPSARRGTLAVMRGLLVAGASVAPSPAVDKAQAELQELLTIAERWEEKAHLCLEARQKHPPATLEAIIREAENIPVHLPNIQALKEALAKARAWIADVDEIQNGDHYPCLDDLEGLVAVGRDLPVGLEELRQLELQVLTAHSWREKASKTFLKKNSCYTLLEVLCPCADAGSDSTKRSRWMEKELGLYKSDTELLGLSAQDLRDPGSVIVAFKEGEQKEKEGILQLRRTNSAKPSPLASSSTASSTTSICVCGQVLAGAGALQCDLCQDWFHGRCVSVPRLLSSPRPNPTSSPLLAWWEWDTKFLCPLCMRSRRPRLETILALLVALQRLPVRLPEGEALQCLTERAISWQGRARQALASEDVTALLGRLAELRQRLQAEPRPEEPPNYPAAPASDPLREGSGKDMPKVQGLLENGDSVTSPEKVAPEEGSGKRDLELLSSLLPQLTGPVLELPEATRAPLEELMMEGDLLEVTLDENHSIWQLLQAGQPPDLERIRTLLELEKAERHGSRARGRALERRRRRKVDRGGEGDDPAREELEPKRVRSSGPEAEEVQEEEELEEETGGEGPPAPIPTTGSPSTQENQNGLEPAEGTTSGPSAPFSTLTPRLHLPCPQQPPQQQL

No constants are given. Whether binding was seen depends on the method and setting. In cells and extracts the contact can be indirect. Some binding calls cover weakened binding; strength is not graded here. For some of these results: Where a sequence is shown, tags or fusion partners need not be part of it.

Holding throughout (test): co-IP; reverse order: Flag-tagged JMJD protein or JMJD2D fragment and p53 coexpressed in HEK293T; lysis in 50 mM Tris-HCl pH 7.4, 150 mM NaCl, 0.5% NP-40; anti-Flag (M2) immunoprecipitation, anti-p53 (DO-1) Western blot
The target of experiment [1] is T1, Flag-tagged JHDM1A (UniProt Q9Y2K7).
T1 sequence: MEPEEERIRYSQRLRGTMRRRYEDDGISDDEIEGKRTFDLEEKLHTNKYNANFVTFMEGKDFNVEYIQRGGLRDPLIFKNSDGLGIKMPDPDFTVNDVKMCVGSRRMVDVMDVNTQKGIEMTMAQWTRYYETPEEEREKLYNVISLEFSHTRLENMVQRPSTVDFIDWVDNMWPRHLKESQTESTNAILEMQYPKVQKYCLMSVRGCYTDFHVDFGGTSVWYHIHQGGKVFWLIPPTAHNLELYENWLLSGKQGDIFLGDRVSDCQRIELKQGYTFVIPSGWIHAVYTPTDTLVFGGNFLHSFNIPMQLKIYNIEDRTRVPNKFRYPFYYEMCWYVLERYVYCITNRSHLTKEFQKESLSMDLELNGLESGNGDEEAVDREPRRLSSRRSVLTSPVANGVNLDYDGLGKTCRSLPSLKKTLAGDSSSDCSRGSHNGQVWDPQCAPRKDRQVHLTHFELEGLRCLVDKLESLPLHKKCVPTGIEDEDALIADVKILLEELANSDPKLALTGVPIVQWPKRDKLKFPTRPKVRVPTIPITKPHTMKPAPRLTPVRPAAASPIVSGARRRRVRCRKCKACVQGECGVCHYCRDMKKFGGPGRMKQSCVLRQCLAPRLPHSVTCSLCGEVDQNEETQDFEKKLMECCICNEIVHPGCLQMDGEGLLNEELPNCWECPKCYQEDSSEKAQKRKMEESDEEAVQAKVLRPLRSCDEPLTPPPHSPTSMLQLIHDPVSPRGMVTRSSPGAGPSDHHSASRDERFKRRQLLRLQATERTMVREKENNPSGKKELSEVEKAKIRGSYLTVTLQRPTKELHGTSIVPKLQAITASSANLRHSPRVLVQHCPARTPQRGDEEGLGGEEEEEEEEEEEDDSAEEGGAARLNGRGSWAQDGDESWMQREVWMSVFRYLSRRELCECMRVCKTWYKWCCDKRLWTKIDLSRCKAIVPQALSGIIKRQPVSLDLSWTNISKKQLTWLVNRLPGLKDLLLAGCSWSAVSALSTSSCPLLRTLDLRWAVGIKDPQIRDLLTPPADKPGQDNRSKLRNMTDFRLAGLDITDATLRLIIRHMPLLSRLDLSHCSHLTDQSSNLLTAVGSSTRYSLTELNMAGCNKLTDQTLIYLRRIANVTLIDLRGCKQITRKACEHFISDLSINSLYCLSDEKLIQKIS

Experiment [2] concerns the target T2, Flag-tagged JMJD2D N-terminal 354 amino acids (human) (UniProt Q6B0I6).
T2 sequence: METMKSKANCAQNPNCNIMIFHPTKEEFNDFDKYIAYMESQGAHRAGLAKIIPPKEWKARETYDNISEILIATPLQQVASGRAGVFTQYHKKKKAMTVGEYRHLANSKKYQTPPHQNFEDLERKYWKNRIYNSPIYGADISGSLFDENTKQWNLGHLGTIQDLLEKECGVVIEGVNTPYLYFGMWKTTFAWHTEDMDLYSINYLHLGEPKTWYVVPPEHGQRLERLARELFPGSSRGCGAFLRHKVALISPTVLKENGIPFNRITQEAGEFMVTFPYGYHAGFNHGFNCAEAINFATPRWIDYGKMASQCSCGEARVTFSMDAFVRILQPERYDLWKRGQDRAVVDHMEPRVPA

The target in experiment [3] is T3, Flag-tagged JMJD2D amino acids 241-523 (human) (UniProt Q6B0I6).
T3 sequence: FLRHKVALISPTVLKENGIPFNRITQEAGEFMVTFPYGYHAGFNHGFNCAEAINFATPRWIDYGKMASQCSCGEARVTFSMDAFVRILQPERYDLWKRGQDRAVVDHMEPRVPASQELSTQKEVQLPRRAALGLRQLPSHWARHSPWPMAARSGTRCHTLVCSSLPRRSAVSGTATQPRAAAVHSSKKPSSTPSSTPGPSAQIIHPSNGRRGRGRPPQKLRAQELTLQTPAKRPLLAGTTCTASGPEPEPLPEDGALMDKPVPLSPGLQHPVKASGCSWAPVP

The target of experiment [4] is Flag-tagged SMCX (UniProt P41229).

Regarding “p53 (expressed from pcDNA3-p53) (from UniProt P04637 1-393)”, the binding entry in experiment [1] was “no binding”; in experiment [2], “no binding”; in experiment [3] it was “binds”; in experiment [4], “no binding”.
